T1: human CD24 (human, UniProt P25063 27-59)
T1 chain (looked up): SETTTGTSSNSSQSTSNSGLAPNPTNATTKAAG

B1: 2-D2-IgG1 (bispecific antibody)
heavy: [here human IgG1 constant region without letters]
light: DIVMTQSPSSLAVSLGERATINCKSSQSLLYSNDQKNYLAWYQQKPGQSPKLLIYWASTRESGVPDRFSGSGSGTDFTLTISSLQAEDVAVYYCQQYFIYPLTFGGGTKLELKRTVAAPSVFIFPPSDEQLKSGTASVVCLLNNFYPREAKVQWKVDNALQSGNSQESVTEQDSKDSTYSLSSTLTLSKADYEKHKVYACEVTHQGLSSPVTKSFNRGECGGGGSGGGGSQVQLQESGPGLVKPSETLSLTCTVSGSSLTSYGVHWVRQPPGKCLEGLGVIWPGGSTNYNSALMSRVTISKDNSKSQVSLKMSSLTAADTAVYYCARVTGTWYFDVWGQGTTVTVSSGGGGSGGGGSGGGGSDIQMTQSPSSLSASLGDRVTISCSASQGISNYLNWYQQKPDGTVKLLIYYTSTLHSGVPSRFSGSGSGTDYTLTISSLQPEDIATYYCQQYSKLPWTFGCGTKLEIK
B2: 2-C2-IgG1 (bispecific antibody)
heavy: EVQLQESGPGLVKPSQTLSLTCTVSGYSITSGYTWHWIRQFPGNKLEWIGHIQYTGNTKYNPSLESRITISRDTSKNQFSLKLSSVTAADTATYYCARGSTNSNDYWGQGTLVTVSS[here human IgG1 constant region without letters]GGGGSGGGGSGGGGSQVQLQESGPGLVKPSETLSLTCTVSGSSLTSYGVHWVRQPPGKCLEGLGVIWPGGSTNYNSALMSRVTISKDNSKSQVSLKMSSLTAADTAVYYCARVTGTWYFDVWGQGTTVTVSSGGGGSGGGGSGGGGSDIQMTQSPSSLSASLGDRVTISCSASQGISNYLNWYQQKPDGTVKLLIYYTSTLHSGVPSRFSGSGSGTDYTLTISSLQPEDIATYYCQQYSKLPWTFGCGTKLEIK
light: DIVMTQSPSSLAVSLGERATINCKSSQSLLYSNDQKNYLAWYQQKPGQSPKLLIYWASTRESGVPDRFSGSGSGTDFTLTISSLQAEDVAVYYCQQYFIYPLTFGGGTKLELKRTVAAPSVFIFPPSDEQLKSGTASVVCLLNNFYPREAKVQWKVDNALQSGNSQESVTEQDSKDSTYSLSSTLTLSKADYEKHKVYACEVTHQGLSSPVTKSFNRGEC

Molecular target: T1, human CD24
Assay: cell-based or functional assay

| Binder | ADCC: cleavage death of MCF-7 cells by NK cells (LDH release), EC50 |
| --- | --- |
| B1 | 0.414 nM |
| B2 | 0.152 nM |
